# Experimental data reported in the supplement of paper PMC3334620.
# In all, about 33,000 sequences were measured (“E-score (-0.5 to 0.5)”: median about -0.021, highest 2% from about 0.32 on). Some of the results follow.
# Target: T1, Zap1 (UniProt P47043)
# T1 sequence: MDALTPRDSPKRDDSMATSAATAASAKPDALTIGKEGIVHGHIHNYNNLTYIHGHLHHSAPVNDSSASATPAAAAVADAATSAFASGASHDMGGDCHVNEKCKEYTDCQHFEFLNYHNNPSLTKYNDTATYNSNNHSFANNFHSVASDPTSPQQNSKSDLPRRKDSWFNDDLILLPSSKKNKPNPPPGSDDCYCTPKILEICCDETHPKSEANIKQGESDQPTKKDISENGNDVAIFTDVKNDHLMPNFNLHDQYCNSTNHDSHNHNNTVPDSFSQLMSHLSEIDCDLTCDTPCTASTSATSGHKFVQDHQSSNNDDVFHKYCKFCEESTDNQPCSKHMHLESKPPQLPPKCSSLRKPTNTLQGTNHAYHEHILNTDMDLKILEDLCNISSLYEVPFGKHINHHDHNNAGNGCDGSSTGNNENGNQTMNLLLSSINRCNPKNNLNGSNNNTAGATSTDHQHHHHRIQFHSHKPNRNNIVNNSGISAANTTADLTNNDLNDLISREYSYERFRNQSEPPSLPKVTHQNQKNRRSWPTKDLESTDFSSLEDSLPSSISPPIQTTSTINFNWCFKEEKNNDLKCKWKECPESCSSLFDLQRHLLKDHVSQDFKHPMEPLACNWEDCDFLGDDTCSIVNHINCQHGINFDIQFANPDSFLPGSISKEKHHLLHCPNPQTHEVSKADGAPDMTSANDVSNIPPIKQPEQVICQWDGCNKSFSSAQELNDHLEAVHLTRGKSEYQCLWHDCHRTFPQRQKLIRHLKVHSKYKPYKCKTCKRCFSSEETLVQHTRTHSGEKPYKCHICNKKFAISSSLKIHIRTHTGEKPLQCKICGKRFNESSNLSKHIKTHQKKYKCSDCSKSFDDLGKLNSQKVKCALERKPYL
# Assay: PBM E-score (8-mer binding enrichment) (E-score (-0.5 to 0.5)); higher = stronger / more preferred TF binding; most listed sequences are background and not binding sites
# Conditions: protein concentration: 200 nM; construct: GST-full length
# Summary of the method: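 For each ungapped eight-base word taken together with its reverse complement, the Universal PBM Analysis Suite assigned an E-score. Binding data came from GST-tagged yeast transcription factors, applied at about 100-200 nM, on universal all-10-mer Agilent arrays made double-stranded by primer extension. Fluorescent anti-GST marked bound protein, and scans were normalised with masliner.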
row,Sequence,PBM E-score
1,ACGCATCA,0.119
2,CAGTTGAA,-0.141
3,ACTGTAAC,0.292
4,CGGTCAAG,0.0395
5,AAGTAGCG,-0.271
6,CTTGACCA,0.147
7,CGCGTTGC,0.117
8,AGTTTTAC,0.0307
9,ATGGCACC,0.0227
10,CGGGTGCC,0.0214
11,AGAATTCG,-0.0461
12,TGTTTGAA,0.194
13,GGGGGTCA,-0.132
14,ACGTGGTG,-0.0216
15,GACGCGTC,-0.325
16,CGGCTAAA,-0.12
17,AGGAAGTA,0.0438
18,CTCCCCGC,0.0789
19,AAAAAGAT,0.115
20,CCTAACGA,0.093
21,AACATGCG,-0.0232
22,ACTAGAAG,-0.0477
23,GTTCCGTA,0.0429
24,AGGATGCG,-0.159
25,AAACACTA,0.0817

row,Sequence,PBM E-score
1,GTATACCA,0.197
2,AAAAGGGA,-0.0112
3,CGACAGTA,-0.0912
4,AGGCGCCC,-0.31
5,AACACACC,0.129
6,ATATTGCC,-0.112
7,ACAAAGTA,0.0977
8,AGTACATC,-0.0149
9,ACGCCCAA,-0.0258
10,CGGCTGGA,-0.209
11,AGTAATAC,0.0329
12,ACCTCTAG,0.411
13,AAAGTAAC,0.0452
14,GGCGCAAC,-0.0302
15,AGTGAATA,0.00413
16,GTGCACTA,-0.0272
17,CACTAGTC,-0.185
18,AAGGAAGG,-0.0888
19,GCTGTCAA,-0.0461
20,TCAGAACA,-0.0665
21,CCCACGGG,0.0915
22,AAGTGAGT,-0.196
23,CGGTAAGA,0.0399
24,ACCAGTGC,-0.121
25,CAAGCTCC,-0.225

row,Sequence,PBM E-score
1,AACTGTGC,-0.177
2,CATTGCGC,-0.185
3,GGCACCAC,0.0803
4,AATTCCCT,0.133
5,TAAGTATA,0.227
6,ATCACCGA,0.0268
7,ATAGACCA,-0.0294
8,TCCCCAGA,-0.0559
9,GCGAGTAA,0.187
10,CCCTGTCA,-0.145
11,CGAACCAG,0.196
12,GGTTGTTA,0.355
13,AATGCAAT,-0.138
14,ACCCTGGA,0.161
15,AGGGCAGA,-0.191
16,TCTACCAA,-0.0622
17,ATCGAGCG,-0.124
18,GATCTACA,-0.14
19,ACAGACCT,0.121
20,AGTACCCG,0.266
21,ACGGTTGA,0.0358
22,CAAAGGTC,0.314
23,AAAATTCA,0.107
24,CCAGTCGA,-0.0777
25,AATCGGAT,-0.0692

row,Sequence,PBM E-score
1,GGGAACGA,-0.201
2,AGTCTTCG,-0.116
3,CAGTGGGA,-0.071
4,CATCAAAC,-0.016
5,GGGTTGGA,0.16
6,CCCACAAA,0.31
7,CGGAGAAG,-0.138
8,CTTACGGA,-0.174
9,AAATAGTG,0.119
10,CTCCTGGC,-0.229
11,AACTCTCA,-0.0905
12,AGTAAGAT,-0.0474
13,GACTGGAA,-0.171
14,CAGTGTTC,0.00957
15,AAATCTGT,-0.038
16,AAAATAGT,-0.0378
17,AGCCCAAG,-0.0904
18,ATCTCGTC,-0.165
19,CCACTGCG,0.134
20,GAGCGGCC,-0.111
21,ACAAGCGA,-0.0588
22,CCTGATAC,0.148
23,CACGCTGC,-0.276
24,ACTTAACG,-0.056
25,GATCTCTA,-0.159

row,Sequence,PBM E-score
1,CCTTCGAC,-0.0453
2,CAAGAGGC,-0.0842
3,AGGTCCAC,0.0357
4,AAAGCGGT,0.131
5,ATGTTCGC,-0.159
6,CACCTATG,-0.0649
7,ACCTGTCA,0.232
8,CTGCTCTA,-0.0882
9,ATAGATGG,-0.195
10,GCGTGCTA,-0.268
11,CATGTTCC,-0.208
12,ACACCTAG,-0.181
13,CGGCACGA,-0.118
14,CAATTATA,0.121
15,CGCCTTTA,0.057
16,GCTTGTGA,-0.0677
17,CCAGTCTA,-0.143
18,CGGTAGTA,0.107
19,GCTGCCTA,-0.185
20,ACGGGTGC,-0.0644
21,AAATCTAC,0.051
22,AATATATG,0.0581
23,CGTCAGCA,-0.0127
24,AGTACTCC,-0.1
25,ACACGGGC,-0.377

row,Sequence,PBM E-score
1,AACAGTCT,-0.14
2,AATTTTCT,-0.131
3,GATCTAAC,0.0652
4,AACAAAGT,0.156
5,CCCGATTC,-0.0858
6,ATAAATCC,-0.00924
7,ATTTGAAC,0.125
8,ACACTGAC,0.0646
9,AAAGGGCG,0.0277
10,TACGCCAA,-0.119
11,CCCGCCAC,0.156
12,CGATACAC,-0.0446
13,CTTCGTCA,0.052
14,CGCCGAGA,0.0152
15,ACCGTTCG,0.102
16,CGTGGCTA,-0.159
17,CATCAGCA,-0.206
18,GATCCATC,-0.25
19,AATCAATA,0.0971
20,CATTGGGA,-0.0338
21,CGCTCTGA,-0.153
22,ACGAAGAC,-0.0678
23,CCCCGGTC,0.175
24,CCCCTCCG,0.157
25,AAGTGTTG,0.0499

row,Sequence,PBM E-score
1,AACCAATA,0.225
2,AACGAACC,0.176
3,TACAGTCA,0.0259
4,TGCCCCCA,-0.27
5,CCAGTTGC,-0.0528
6,ATCATTAA,0.109
7,TGAGAGCA,-0.0313
8,ACAGCGAA,0.0125
9,GACCAGAA,0.157
10,GCGAGGCC,-0.0129
11,ACCAACCG,0.121
12,ACGAATAA,0.187
13,GCCGGGCC,-0.202
14,GGGCCTTA,-0.00342
15,AGGTCTCG,0.0357
16,GTTTCGAA,0.0504
17,AGCCCCCA,-0.254
18,TCCTTGCA,-0.0343
19,GTACGAAC,0.157
20,GCAGAACA,0.119
21,AAATGATT,0.172
22,AGATATCC,-0.00055
23,ATGTCAGA,-0.228
24,TCCGTGAA,-0.0169
25,CTACTGGA,-0.117

row,Sequence,PBM E-score
1,AGCGAACA,-0.073
2,ACGATCGC,-0.0324
3,AGGGACAA,-0.0394
4,ACCCCCTA,-0.354
5,GTAAAGGA,-0.0539
6,CACTTGAG,-0.134
7,TAAGAGCA,-0.0274
8,GCGAATCA,-0.093
9,CCAAGGCC,0.105
10,ATGAGTGG,-0.106
11,GCTTAGAC,-0.247
12,CAATAAAG,0.144
13,ACGCGCAT,-0.115
14,CCCCTGGA,-0.00303
15,CACGAACA,0.139
16,TCCTGGCA,0.0196
17,ATGTTTGA,0.13
18,CATGTATA,-0.12
19,GCGCTCCC,-0.00907
20,CGCCGGGA,-0.222
21,ATGCTGTG,-0.136
22,ATAACGTA,0.111
23,AGTGTTTC,-0.0626
24,TGCTCACA,-0.0942
25,AGTTGAAC,-0.149

row,Sequence,PBM E-score
1,ATACTCGG,-0.062
2,AAGAATAC,-0.011
3,ACGAGGCG,-0.0842
4,GACAATTA,0.111
5,CGGAGTAG,-0.149
6,CCGAGGAG,-0.235
7,AGATAGCT,-0.153
8,AATTAGGG,0.0566
9,ACGAACAA,0.209
10,ACTGTGTC,0.0641
11,GCCACACA,-0.0586
12,CACGCACA,-0.0309
13,GAAGAATA,0.00757
14,AGTGTAAC,0.137
15,CGGGGACG,-0.238
16,ACAATCAC,-0.0476
17,AGGGAGCC,-0.236
18,CTGGCTAA,-0.108
19,CAATGGTA,0.244
